Data taken from article PMC12040169 (PLOS Biology, 2025).
The list shows a part of the results.

What follows are compounds tested on T1, C. trachomatis L2/434/Bu expressing GFP (CTL2-GFP). Conditions: total inclusion area; 28.5 h, 10 µM; inhibitor.
T1 construct: L2/434/Bu GFP intracellular growth in HeLa cells
Parameters: species or system HeLa; C. trachomatis total inclusion area by high-content imaging, normalised to DMSO
How it was run: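 Imaging read-out: GFP inclusions and Hoechst nuclei captured by high-content imaging after fixation. Inclusion area/number = chlamydial growth; nuclei count = host cell viability. MIC calculated per earlier method.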

| Compound | % of control remaining |
| --- | --- |
| c1cnc(NCc2cc3n(n2)CCN(CC2CCCC2)C3)nc1 [CBK307007] | 76.9286 |
| Cc1nc2c(OCCOc3ccccc3)cccn2c1N(C)CC1CC1 [CBK147272] | 103.272 |
| O=C(Nc1ccc(F)cc1)C1CC(=O)n2c(nc3ccccc32)N1 (centres unmarked) [CBK287282] | 107.04 |
| CN(C)CC(=O)Nc1ccc2n(c1=O)C[C@H]1C[C@@H]2CN(Cc2ccccn2)C1 [CBK289206] | 83.4248 |
| Cc1cccc(-n2nnnc2SC(C)C(=O)O)c1 (centres unmarked) [CBK287003] | 110.669 |
| CCOc1ccc2cc(C3CC(c4ccccc4)=NN3C(=O)CCC(=O)O)c(Cl)nc2c1 (centres unmarked) [CBK296097] | 86.3432 |
| Cc1nccn1CCCn1cncc1-c1ccc2c(c1)CC(C)(C)O2 [CBK281809] | 97.2228 |
| Cc1ccc(CNC(=O)c2ccc3c(c2)NC(=O)C(N2CCCC2)S3)cc1 (centres unmarked) [CBK071788] | 55.9108 |
| COc1ccc(-n2cc(-c3ccncc3)nn2)cc1OC [CBK113106] | 110.225 |
| O=c1cc(NCc2ccncc2)c2ccccc2o1 [CBK017259] | 76.5581 |
| CC(NC(=O)C1CCN(CCCN(C)S(C)(=O)=O)CC1)c1cccc2ccccc12 (centres unmarked) [CBK148651] | 67.3278 |
| Cc1ccc(-c2noc(CSc3nnc(CCc4ccccc4)n3-c3ccccc3)n2)cc1 [CBK268493] | 106.984 |
| CCOc1ccc(C2=NN(C(=O)CCC(=O)O)C(c3ccc4nccnc4c3)C2)cc1 (centres unmarked) [CBK296703] | 81.3941 |
| COc1ccccc1CN(C)CCc1ccccn1 [CBK261741G] | 96.0156 |
| CNc1nc(NCCCn2c(C)cccc2=O)cc(C2CCOC2)n1 (centres unmarked) [CBK306875] | 40.4835 |
| O=C(O)c1ccc(NC2=NS(=O)(=O)c3ccccc32)cc1 [CBK287084] | 96.3326 |
| CCC(Cc1ccccc1C)c1cc(O)c(C(c2ccccc2)C2CC2)c(=O)o1 (centres unmarked) [CBK016783] | 96.7864 |
| OC1CCN(Cc2c([C@H]3CCCO3)[nH]c3ncccc23)CC1 [CBK286301] | 62.2042 |
| CN(C)S(=O)(=O)N(CC(=O)O)c1ccccc1 [CBK267660] | 80.9909 |
| CC1CCN(S(=O)(=O)c2ccc(C(=O)N3CCC(C(=O)O)CC3)cc2)CC1 [CBK297097] | 69.497 |
| O=C(Nc1sc2c(c1C(=O)NCc1cccnc1)CCC2)c1ccco1 [CBK269599] | 104.978 |
| O=S(=O)(c1ccc(F)cc1F)N1CCN(Cc2ccc3c(c2)OCO3)CC1 [CBK074744] | 101.804 |
| CC(CC(=O)N1CCC(c2cc3cccnc3[nH]2)CC1)n1ccnc1 (centres unmarked) [CBK285028] | 87.9454 |
| Cc1noc(C)c1NC(=O)c1ccncc1 [CBK200389] | 98.667 |
| O=C(O)c1ccc(Cl)c(-c2ccc(/C=N\Nc3ccc([N+](=O)[O-])cn3)o2)c1 [CBK263431] | 92.8706 |
| CC1(COC(=O)N2CCC(OCc3cnc(-c4ccc(S(C)(=O)=O)cc4)cn3)CC2)COC1 [CBK172009] | 63.9461 |
| CC(C)(C)NC(=O)CCn1c(-c2cccnc2)cc2cccnc21 [CBK282691] | 75.6391 |

| Compound | % of control remaining |
| --- | --- |
| CC(C)Oc1cccc(CNC(=O)c2ccc(C(C)(C)C)[nH]c2=O)c1 [CBK281415] | 76.8067 |
| O=C(c1ccc2c(c1)CCO2)N1CCC(S(=O)(=O)c2ccc(-c3ccccc3)cc2)CC1 [CBK131957] | 81.9202 |
| Cc1ccc(-c2c[nH]c([C@@H]3COCCN3Cc3c[nH]c4ccccc34)n2)cc1 [CBK289308] | 79.0078 |
| O=S(=O)(c1ccc(C(F)(F)F)cc1Cl)N1CCN(Cc2cccc3cccnc23)CC1 [CBK063075] | 83.1356 |
| Cn1c(=O)c2c(nc(CN3CCOCC3)n2CCc2ccccc2)n(C)c1=O [CBK269264] | 108.988 |
| Cc1cccnc1CN1CCN(C(=O)NCCSc2nncn2C)CC1 [CBK306949] | 72.1647 |
| CC(=O)Nc1cccc(NCc2csc(C3CCCC3)n2)c1 [CBK304874] | 70.1664 |
| CC(C)N1CCC(N(C)Cc2c[nH]nc2C(C)(C)C)CC1 [CBK283002] | 83.4557 |
| Nc1ccc(/C=C/c2cccc(C(=O)O)n2)cc1 [CBK267711] | 110.062 |
| CCNC(=O)N1CCC[C@@H](O)[C@H](NC(=O)c2ccc(OC)cc2)C1 [CBK289066] | 91.7449 |
| CC(C)Cn1c(SCC(=O)N2CCNC2=O)nnc1-c1ccco1 [CBK295175] | 87.4228 |
| COc1ccc(S(=O)(=O)Nc2nc(C)c(C(=O)Nc3ccc(F)cc3)s2)cc1OC [CBK050538] | 89.0227 |
| CC(C)c1c(N)nc(SCc2ccccc2)nc1Cl [CBK016721] | 92.5944 |
| O=c1[nH]c2n[nH]c(=O)n2c2c(-c3ccccc3)c[nH]c12 [CBK288054] | 108.135 |
| CCCC(C(=O)O)N1C(=O)C(=Cc2ccc(-c3ccc(C(=O)OCC)cc3)o2)SC1=S (centres unmarked) [CBK296983] | 105.037 |
| CN(C)CCCOc1ccc2c(c1)Sc1ccccc1CC2=O [CBK058002] | 99.7547 |
| Cc1ccc(OCC(=O)Nc2ccccc2CO)cc1 [CBK263600] | 122.906 |
| COc1ccccc1NCC(=O)n1nc(C)cc1C [CBK263879] | 83.5591 |
| O=S(=O)(NC1CCCC1)c1cccc(-c2nnc(-c3ccccc3)o2)c1 [CBK265716] | 94.4741 |
| CCc1nn2c(=O)cc(CN3CCN(C(=O)c4cccs4)CC3)nc2s1 [CBK306474] | 113.602 |
| Cc1cccnc1C(NC(=O)C1CCN(C(=O)N2CCCC2)CC1)c1cccs1 (centres unmarked) [CBK060124] | 106.952 |
| N#Cc1ccc(CNC(=O)N2CCCC(CO)C2)cc1 (centres unmarked) [CBK156043] | 113.232 |
| CN(C(=O)C1CCN(C(=S)NCc2ccccc2)CC1)C(c1ccccc1)c1ccccn1 (centres unmarked) [CBK060476] | 106.844 |
| COCC(=O)N[C@H]1C[C@H]2C(=O)Nc3ccccc3C(=O)N2C1 [CBK289353] | 75.9366 |
| S=C(Nc1ccccc1Cl)Nc1ccccc1-n1cccc1 [CBK018806] | 0 |
| CCc1ccc(NC(=O)N2CCCCC2CCn2ccnc2)cc1 (centres unmarked) [CBK307453] | 70.4464 |
| O=C(O)CCCn1cc(NC(=O)c2ccccc2Br)cn1 [CBK270100] | 81.4366 |

| Compound | % of control remaining |
| --- | --- |
| CN1CCC(N2C[C@H](O)C[C@H]2c2nc(-c3ccc4c(c3)OCO4)no2)CC1 [CBK288931] | 100.823 |
| Cc1cccc(-n2ncc3c2ncn2c(COc4ccccc4C)nnc32)c1 [CBK265567] | 101.221 |
| Cc1ccccc1CNC(=O)c1ccc(C)c([N+](=O)[O-])c1 [CBK264010] | 107.03 |
| CC(=O)Nc1cccc(-c2ccc(C(=O)NCc3ccc(F)cc3)c(N3CCN(C(=O)c4ccco4)CC3)n2)c1 [CBK106012] | 93.8268 |
| O=C(NCCCN1CCc2ccccc2C1)C1CC1c1ccco1 (centres unmarked) [CBK305257] | 71.2334 |
| S=C(Nc1ccccc1)c1ccccc1 [CBK005397] | 56.2985 |
| CC(=O)Nc1cccc(-c2cnc(Nc3ccc(N4CCOCC4)cc3)c3nccn23)c1 [CBK091235] | 129.463 |
| O=C(Cn1cc(Br)ccc1=O)NC1CCN(Cc2ccccc2)CC1 [CBK305671] | 69.5832 |
| FC(F)(F)c1cc(-c2cc(Nc3ccc4[nH]ccc4c3)ncn2)cc(C(F)(F)F)c1 [CBK090855] | 89.521 |
| COC(=O)c1c(NC(=O)c2ccncc2)sc2c1CCC2 [CBK262637] | 109.142 |
| CCOC(=O)c1c(NC(=O)c2nn3c(C(F)(F)F)cc(-c4cccs4)nc3c2Cl)sc2c1CCCC2 [CBK262539] | 105.54 |
| COc1cc(CNC(C)(C)CO)c(Cl)cc1OC(C)C [CBK269542] | 92.8095 |
| COc1cccc(C(=O)NNC(=O)c2ccc(F)cc2)c1 [CBK261705] | 96.3104 |
| O=C(NCc1ccccn1)c1ccccc1Nc1cccc(C(F)(F)F)c1 [CBK107252] | 85.2616 |
| CC1CCc2nc(NS(=O)(=O)c3ccccc3)sc2C1 (centres unmarked) [CBK026915] | 93.3679 |
| CC(=O)OC(COc1ccc(F)cc1)Cn1cnc2ccccc21 (centres unmarked) [CBK266162] | 103.348 |
| O=C(CC1SCCNC1=O)NCc1ccccc1 (centres unmarked) [CBK270202] | 54.9873 |
| COc1cc(/C=C(\C#N)c2nc3ccccc3n2C)cc([N+](=O)[O-])c1O [CBK263893] | 115.818 |
| COc1ccc(CCN2C(=O)CC(C(=O)O)S/C2=N\c2ccc(Cl)cc2)cc1OC (centres unmarked) [CBK263286] | 109.234 |
| CCc1nn2c(=O)cc(CN3C(=O)NC(C)(c4ccco4)C3=O)nc2s1 (centres unmarked) [CBK305880] | 59.5835 |
| CS(=O)(=O)N(CC(=O)N1CCN(C(c2ccccc2)c2ccccc2)CC1)c1cccc(F)c1 [CBK266330] | 111.077 |
| O=C(Cn1c(=O)n(Cc2ccco2)c2ncccc21)N1CCCCC1 [CBK283862] | 75.6666 |
| COc1ccc(NS(=O)(=O)c2cccc(Cl)c2C)c(C(=O)NCc2ccccc2)c1 [CBK113953] | 108.505 |
| O=S(=O)(Cc1ccc(Cl)cc1)Nc1cccc2[nH]ccc12 [CBK153531] | 77.5074 |
| O=C1NC(N2CCCC2)=NOc2nnc(Cl)cc21 [CBK024856] | 75.8804 |
| CC(C)NCC(O)COC1CCC(C(C)(C)C)CC1 (centres unmarked) [CBK029007C] | 54.6025 |
